Source: PubChem BioAssay AID1030 (National Center for Advancing Translational Sciences (NCATS), 2008)
Values joined by “and” are separate entries in the source; they are usually repeats but may differ in a detail not shown here. Identical values can stand only once. Out of some 220,000 compounds screened, about 16,000 (7.3%) were called active. The shares of active, inactive and inconclusive entries below differ from those in the screen. Calls come from the whole dose curve; as a rule, active = well fitted inhibition curve with a large enough effect (not every such curve was filed as active); inconclusive = small, poorly fitted or top-dose-only effect, or another doubt; inactive = no such curve, though single readings can be large or run the other way. Potencies beside an inconclusive call are fits to weak or partial responses and may not hold up.

The compounds below were run against Aldehyde dehydrogenase 1A1 (Homo sapiens) (UniProt P00352) (assay: qHTS Assay for Inhibitors of Aldehyde Dehydrogenase 1 (ALDH1A1)). Conditions: Purified ALDH1A1, NADH fluorescence, propionaldehyde substrate; series mostly up to 75.3 µM; activity, negative = inhibition: at the top concentration.
Chain of UniProt P00352 (P00352 whole entry, looked up): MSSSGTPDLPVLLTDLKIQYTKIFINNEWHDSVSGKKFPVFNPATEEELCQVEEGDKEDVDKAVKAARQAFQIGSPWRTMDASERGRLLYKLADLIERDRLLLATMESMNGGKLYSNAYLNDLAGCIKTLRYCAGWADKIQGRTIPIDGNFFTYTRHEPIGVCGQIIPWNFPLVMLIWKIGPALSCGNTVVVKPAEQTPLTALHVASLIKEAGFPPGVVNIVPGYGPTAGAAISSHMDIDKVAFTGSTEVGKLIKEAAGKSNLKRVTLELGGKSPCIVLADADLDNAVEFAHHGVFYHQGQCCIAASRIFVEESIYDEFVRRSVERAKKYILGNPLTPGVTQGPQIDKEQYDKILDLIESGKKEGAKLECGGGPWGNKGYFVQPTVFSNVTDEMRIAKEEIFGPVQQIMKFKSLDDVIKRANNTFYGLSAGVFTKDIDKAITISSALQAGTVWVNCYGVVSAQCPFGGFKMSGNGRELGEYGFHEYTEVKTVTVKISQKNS
Potency is the fitted concentration of half-maximal effect; tags give direction and shape of the fitted curve.
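Throughout, for activity, negative = inhibition: plate controls were no enzyme wells and a reference inhibitor.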

Row | SMILES | activity, negative = inhibition | Potency
1 | COc1ccc(CC2C(=O)N(C)C(=O)N(C)C2=O)c(OC)c1 | inactive: -15.6% | 
2 | [O-][Br+2]([O-])O |  | inconclusive: 25.1 µM [inhibitor, single point] and inconclusive: 35.5 µM [inhibitor, single point]
3 | Cc1cccc(N2C(=O)/C(=C/N3CCN(C(=O)c4ccco4)CC3)C(=O)NC2=S)c1 |  | inconclusive: 39.8 µM [inhibitor, single point]
4 | CN(C)C(Cc1ccccc1)C(=O)c1ccc(-c2ccccc2)cc1 (stereo not drawn) |  | inconclusive: 39.8 µM [inhibitor, single point]
5 | C[C@H]1CCCC(=O)CCC/C=C/c2cc(O)cc(O)c2C(=O)O1 |  | active: 15 µM and active: 14.1 µM
6 | CC(C)=CCCC1(C)C=Cc2c(O)c3c(c(CC=C(C)C)c2O1)OC12C(CC4CC1C(C)(C)OC2(C/C=C(/C)C(=O)O)C4O)C3=O (stereo not drawn) |  | inconclusive: 29.9 µM [inhibitor, single point]
7 | COc1ccc(-n2c(O)c(C(C)=Nc3ccc4c(c3)CCC4)c(=O)[nH]c2=O)cc1 |  | inconclusive: 4.47 µM [inhibitor, single point]
8 | C=CCOc1ccc(CC2C(=O)N(C)C(=O)N(C)C2=O)cc1 |  | inconclusive: 39.8 µM [inhibitor, single point]
9 | Cn1c(=O)c2nncnc2n(C)c1=O |  | inconclusive: 35.5 µM [inhibitor, single point]
10 | CC(C)COC(=O)c1ccccc1C(=O)OCC(C)C |  | inconclusive: 39.8 µM [inhibitor, single point]
11 | C[C@@]12Cc3cnc(-c4ccccc4)nc3C[C@@H]1CC[C@@H]1[C@H]3CC[C@@](C)(O)[C@]3(C)CC[C@@H]12 |  | inconclusive: 3.98 µM [inhibitor, single point]
12 | COc1cc(CN2CCSCC2)cc(OC)c1OC |  | inconclusive: 39.8 µM [inhibitor, single point]
13 | Cc1cc(SCC(=O)N/N=C/c2ccco2)nc2ccccc12 | inactive: -12.7% | 
14 | CC(=NCC1CCCO1)c1c(O)n(-c2ccccc2)c(=O)[nH]c1=O (stereo not drawn) |  | inconclusive: 39.8 µM [inhibitor, partial curve, poor fit]
15 | O=C1NC(c2cccnc2)Nc2sc3c(c21)CCCC3 (stereo not drawn) |  | inconclusive: 25.1 µM [inhibitor, single point]
16 | CCCCCCn1c(O)c(C=Nc2c(C)n(C)n(-c3ccccc3)c2=O)c(=O)[nH]c1=O |  | inconclusive: 31.6 µM [inhibitor, partial curve]
17 | Cc1c(C(=O)c2ccc3ccccc3c2)c2cccc3c2n1[C@H](CN1CCOCC1)CO3 | inactive: -14% | 
18 | CCCCC/C=C\C/C=C\C/C=C\C/C=C\CCCC(=O)Nc1ccc(O)cc1C |  | inconclusive: 39.8 µM [inhibitor, single point]
19 | Cc1c(C(=O)N2CCC3(CC2)OCCO3)oc2ccc(S(=O)(=O)N3CCCCC3)cc12 |  | inconclusive: 39.8 µM [inhibitor, single point]
20 | CCOC(=O)COc1ccc2c(c1)c(C(C)=O)c(C)n2Cc1ccccc1 | inactive: 2.45% | 
21 | Oc1ccc2c3c1O[C@H]1c4oc5ccccc5c4C[C@@]4(O)C(C2)N(CC2CC2)CC[C@]314 | inactive: 1.31% | 
22 | C=CCN1C[C@@H](C)N([C@H](c2ccc(C(=O)N(CC)CC)cc2)c2cccc(OC)c2)C[C@@H]1C | inactive: -5.7% | 

Row | SMILES | activity, negative = inhibition | Potency
23 | Nc1nc(=S)c2ncn(C3OC(CO)C(O)C3O)c2[nH]1 (stereo not drawn) |  | active: 7.94 µM
24 | O=C(N/N=C/c1c(O)n(CCC2=CCCCC2)c(=O)[nH]c1=O)c1ccccc1 |  | inconclusive: 28.2 µM [inhibitor, partial curve]
25 | NS(=O)(=O)c1ccc(N2CCNCC2)cc1 |  | inconclusive: 39.8 µM [inhibitor, single point]
26 | COc1ccc2c(c1)c(CCN1CCOCC1)c(C)n2C(=O)c1cccc(Cl)c1Cl | inactive: -9.83% | 
27 | N#CC(Cl)(Cl)Cl |  | active: 20 µM
28 | O=c1[nH]c(=O)n(Cc2ccco2)c(O)c1C=NCc1ccc2c(c1)OCO2 |  | inconclusive: 39.8 µM [inhibitor, single point]
29 | COc1ccc(N=Cc2c(O)n(CC3CCCO3)c(=O)[nH]c2=O)cc1 (stereo not drawn) |  | inconclusive: 31.6 µM [inhibitor, partial curve]
30 | CN1CCC2=C[C@@H](O)[C@@H]3OC(=O)c4cc5c(cc4C3C21)OCO5 (stereo partly drawn) |  | inconclusive: 28.2 µM [inhibitor, partial curve]
31 | C[C@]12CC[C@H]3[C@@H](CCC4=CC(=O)CC[C@@H]43)[C@@H]1CC[C@@H]2O |  | inconclusive: 39.8 µM [inhibitor, single point]
32 | O=C(O)CCn1cc(C=C2C(=O)NC(=O)NC2=O)c(-c2cc3ccccc3oc2=O)n1 |  | inconclusive: 35.5 µM [inhibitor, single point]
33 | CC[n+]1c(SC)ccc2cc(OC)ccc21 |  | inconclusive: 37.7 µM [inhibitor, single point]
34 | COC(=O)C1=Nc2ccccc2/C1=C\c1c(O)n(-c2ccc(OC)cc2)c(=O)[nH]c1=O |  | active: 22.4 µM
35 | C=CCn1c(=O)c(C=Nc2cccnc2Cl)c(O)n(CCCC)c1=O |  | inconclusive: 44.7 µM [inhibitor, single point]
36 | c1ccc2c(c1)CN1CCCC1=N2 |  | inactive
37 | Cc1ccc(-n2c(C)cc(/C=C3/C(=O)NC(=O)N(C)C3=O)c2C)cc1 |  | inconclusive: 31.6 µM [inhibitor, partial curve]
38 | Cc1cccc(CSc2nc3c(cc2C#N)CN(C)CC3)c1 |  | inconclusive: 39.8 µM [inhibitor, single point]
39 | C1CCC2CCCCC2C1 (stereo not drawn) |  | inconclusive: 22.4 µM [inhibitor, single point]
40 | COc1cccc(-n2cnc3scc(-c4cccs4)c3c2=O)c1 |  | inconclusive: 39.8 µM [inhibitor, single point]
41 | C=C(Cl)Cl | inactive: -5.49% | 
42 | C[N+]1=Cc2cc3c(cc2CC1)OCO3 |  | inconclusive: 28.2 µM [inhibitor, partial curve]
43 | CCN(CC)P(=S)(c1c(C)nc2ccccn12)c1c(C)nc2ccccn12 |  | inconclusive: 39.8 µM [inhibitor, single point]
